From PubChem BioAssay AID2675 (National Center for Advancing Translational Sciences (NCATS), 2010)
Among all 280,000 compounds or so, about 100 (0.036%) were called active. The inconclusive results got no clear call from the source; some entries with a clear call stand among them for comparison. The call rests on the fitted dose curve; in most records, active means well fitted inhibition curve with a large enough effect in the signal ratio, with a control signal flat (not every such curve was filed as active); inconclusive means small, poorly fitted or top-dose-only effect, or effect the other way, or a change in a side signal; inactive means no such curve, though single readings can be large or run the other way; the % refers to the signal ratio. Where the call is inconclusive, the potency comes from a doubtful curve fit. “Side channel” marks fits to a control or component signal instead of the main read-out.

What follows are compounds tested against Muscleblind-like protein 1 (Homo sapiens) (UniProt Q9NR56) (assay: qHTS Assay for Inhibitors of MBNL1-poly(CUG) RNA binding). Conditions: TR-FRET MBNL1-His/biotin-(CUG)12 binding, 665/545 ratio; activity change, negative = inhibition: at 57.5 µM (top of the series).
Procedure, shortened: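 Compound titration spanned 92 nM–58 uM against the MBNL1-His/biotin-(CUG)12 complex. After 60 min at room temperature with 5 nM streptavidin-XL665 and 0.055 ng/ul terbium anti-His, ratiometric 665/545 nm emission (Ex 340 nm) normalized to controls.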
On the % scale 0 is the no-effect control and ±100 the full control effect; potency means the concentration at half of the fitted maximal effect; tags describe the fitted curve by direction and shape or compound fluorescence and quenching.

Chain of UniProt Q9NR56 (Q9NR56 whole entry, looked up): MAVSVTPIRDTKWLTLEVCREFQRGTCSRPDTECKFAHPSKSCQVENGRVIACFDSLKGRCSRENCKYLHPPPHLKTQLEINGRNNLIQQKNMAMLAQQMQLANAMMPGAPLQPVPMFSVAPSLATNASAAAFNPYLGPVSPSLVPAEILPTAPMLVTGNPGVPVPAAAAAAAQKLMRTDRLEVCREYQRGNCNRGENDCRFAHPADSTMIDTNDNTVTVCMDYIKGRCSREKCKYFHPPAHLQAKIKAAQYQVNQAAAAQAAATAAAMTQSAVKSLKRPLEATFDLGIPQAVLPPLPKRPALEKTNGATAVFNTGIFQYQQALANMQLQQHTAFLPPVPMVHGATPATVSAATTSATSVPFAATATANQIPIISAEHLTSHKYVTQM

SMILES | activity change, negative = inhibition | Potency
COc1ccc(CC(=O)Nc2nc(-c3cc(OC)ccc3OC)cs2)cc1 | inactive: 1.76% | –
Cc1ccc2[nH]c(=O)c(CN(Cc3ccccc3)C(=S)NCCCN(C)C)cc2c1 | inactive: 8.98% | –
CCC(C)(C)n1nnnc1CN1CCC(NC(=O)c2ccc(Br)cc2)CC1 | – | inconclusive: 7.08 µM [quencher, side channel, single point]
Cc1cc(-c2nn(-c3ccccc3F)cc2CN2CCCC(O)C2)c(C)s1 (stereo not given) | inactive: -0.853% | –
CC(=O)Nc1ccc(OC(=O)c2ccc(Cl)cc2)cc1 | – | inconclusive: 0.112 µM [inhibitor, full curve, poor fit]
COc1ccc(OC)c(-n2c(=S)[nH]c3c(sc(=S)n3-c3ccccc3)c2=O)c1 | – | inconclusive: 25.1 µM [quencher, side channel, single point]
CN(C(=O)c1cc([N+](=O)[O-])ccc1N1CCCC1)C1CCCCC1 | – | inconclusive: 14.1 µM [quencher, side channel, partial curve]
C=C(C)COc1ccc(-c2[nH]ncc2Oc2ccccc2OCC)c(O)c1 | inactive: 13.4% | –
O=C(O)c1ccc(N2C(=O)CC(SC(=NCc3ccc4c(c3)OCO4)Nc3ccc(F)cc3)C2=O)cc1 (stereo not given) | inactive: -0.629% | –
COc1cccc(N2CC(C(=O)Nc3ccc(C(=O)OC(C)C)cc3)CC2=O)c1 (stereo not given) | inactive: -9.85% | –
Cc1ccc(-c2nnn(CC(=O)NCCc3ccc4c(c3)OCO4)n2)o1 | – | inconclusive: 3.55 µM [quencher, side channel, single point]
CC1=CC2=C(OC1N(C)C)c1cccc3cccc(c13)C2=O (stereo not given) | – | inconclusive: 25.1 µM [quencher, side channel, partial curve]
O=C(N/N=C1\C(=O)c2cccc3cccc1c23)c1ccc(O)cc1 | – | inconclusive: 3.16 µM [quencher, side channel, full curve, poor fit]
CCOc1ccc(-n2c(N)c(C(=O)NCC3CCCO3)sc2=S)cc1 (stereo not given) | – | inconclusive: 8.91 µM [quencher, side channel, partial curve]
O=C(N/N=C/c1ccc(OC(=O)c2ccccc2Cl)cc1)c1ccc(O)cc1 | – | inconclusive: 7.94 µM [quencher, side channel, full curve]
Cc1nn(-c2ccccn2)c2nc(-c3cccs3)cc(C(=O)N3CCOCC3)c12 | – | inconclusive: 39.8 µM [quencher, side channel, partial curve, poor fit]
CC(=O)NCCCOc1ccc([N+](=O)[O-])cc1Cl | – | inconclusive: 12.6 µM [quencher, partial curve]
CC(=O)Nc1ccc(/C=C/c2ccc3cccc([N+](=O)[O-])c3n2)cc1 | – | inconclusive: 15.8 µM [quencher, side channel, partial curve]
C=CCn1c(-c2cccs2)nc2nc3ccccc3nc21 | – | inconclusive: 6.31 µM [quencher, side channel, partial curve]
CC(CCc1ccccc1)NC(=O)COC(=O)c1ccc([N+](=O)[O-])cc1 (stereo not given) | – | inconclusive: 12.6 µM [quencher, side channel, partial curve]

SMILES | activity change, negative = inhibition | Potency
O=C(Cc1cnc2ncnn2c1)N1CCc2c([nH]c3ccccc23)C1c1ccccn1 (stereo not given) | – | inconclusive: 1 µM [quencher, side channel, full curve]
O=C(CNC(=O)c1ccco1)N/N=C/c1ccc(O)c([N+](=O)[O-])c1 | – | inconclusive: 25.1 µM [quencher, side channel, single point]
O=C(Cc1ccc(F)cc1)N1CCN(c2ccc([N+](=O)[O-])cc2)CC1 | – | inconclusive: 17.8 µM [quencher, side channel, partial curve]
CN1CCN(c2ccc(NC(=O)c3ccc(-c4ccc(Br)cc4)o3)cc2)CC1 | – | inconclusive: 25.1 µM [quencher, side channel, partial curve]
COC(=O)N1C(=O)[C@](c2ccccc2)(C(C)C)N1C(=O)OC | inactive: 1.39% | –
CS(=O)(=O)N(CC(=O)N1CCCCCC1)c1cccc([N+](=O)[O-])c1 | – | inconclusive: 28.2 µM [quencher, side channel, partial curve]
O=C(NCCCNCc1ccccc1)c1ccccn1 | inactive: 3.81% | –
N=c1oc2c3c4c(cc2cc1C(=O)Nc1ccccc1)CCCN4CCC3 | – | inconclusive: 11.2 µM [quencher, side channel, partial curve]
CCN(CC(=O)NCc1cccs1)C(=O)c1ccc(S(=O)(=O)N(C)C)cc1 | inactive: -1.81% | –
O=C1c2cccnc2C(Nc2ccc(Cl)cc2)N1Cc1cccs1 (stereo not given) | – | inconclusive: 39.8 µM [quencher, side channel, single point]
CN(C)CCCNC(CC(=O)Nc1cccc([N+](=O)[O-])c1)C(=O)O (stereo not given) | – | inconclusive: 39.8 µM [quencher, side channel, single point]
COCCn1nnnc1C(c1cc2cccc(C)c2[nH]c1=O)N1CCN(c2ccccc2F)CC1 (stereo not given) | – | inconclusive: 11.2 µM [quencher, side channel, partial curve]
Cc1nc(-c2ccccn2)sc1C(=O)Nc1ccc(F)cc1 | – | inconclusive: 31.6 µM [quencher, side channel, single point]
Cc1cc[n+](-c2nc3ccccc3nc2[N-]S(=O)(=O)c2cccs2)cc1C | – | inconclusive: 14.1 µM [quencher, partial curve]
O=C(CCN1C(=O)/C(=C/c2cccs2)SC1=S)Nc1cccc(C(=O)O)c1 | – | inconclusive: 20 µM [quencher, side channel, partial curve]
COc1ccc(CNC(=O)C(C)OC(=O)c2cccs2)cc1 (stereo not given) | inactive: 0.692% | –
COc1cccc(C(=O)Oc2ccccc2/C=C\C(=O)c2cc3ccccc3o2)c1 | inactive: 15.5% | –
C/C(=N\NS(=O)(=O)c1ccc(Br)cc1)c1ccncc1 | – | inconclusive: 25.1 µM [quencher, side channel, partial curve]
CC1CCCCC12NC(=O)N(CC(=O)NC1CCCc3ccccc31)C2=O (stereo not given) | – | inconclusive: 2.51 µM [inhibitor, full curve, poor fit]
O=C(Nc1ccc(C(=O)O)cc1)/C(=C\c1ccco1)NC(=O)c1ccccc1Cl | – | inconclusive: 14.1 µM [quencher, side channel, partial curve]

SMILES | activity change, negative = inhibition | Potency
CCOC(=O)/C(C#N)=C1/C=Cc2ccccc2N1CC | – | inconclusive: 15.8 µM [quencher, side channel, partial curve]
COc1ccc(CC(=O)NNS(=O)(=O)c2ccccc2[N+](=O)[O-])cc1 | – | inconclusive: 31.6 µM [quencher, side channel, single point]
O=[N+]([O-])c1ccccc1N/N=C/c1c[nH]c2ccccc12 | – | inconclusive: 20 µM [quencher, side channel, single point]
O=[N+]([O-])c1ccc(Cl)c(-c2ccc(/C=N/c3c(-c4ccco4)nc4ccccn34)o2)c1 | – | inconclusive: 6.31 µM [quencher, side channel, partial curve]
S=C1CCSc2ccc(Cl)cc2N1 | inactive: -3.94% | –
O=C(CSc1ccc(Cl)cc1)N1CCN(c2ccc([N+](=O)[O-])cc2Cl)CC1 | inactive: 14.6% | –
CCOC(=O)CN(C(=O)CSc1nnc2c(n1)[nH]c1ccc(F)cc12)c1ccccc1 | – | inconclusive: 12.6 µM [quencher, side channel, partial curve]
OCCNCc1cc(Br)ccc1OCc1ccccc1 | – | inconclusive: 0.251 µM [fluorescent, side channel, partial curve]
CC(=O)OCCCN1C(=O)c2cccc3cc(Br)cc(c23)C1=O | – | inconclusive: 2.24 µM [quencher, side channel, full curve]
CCC1C(=O)CC(c2ccc([N+](=O)[O-])cc2)NC1c1ccc([N+](=O)[O-])cc1 (stereo not given) | – | inconclusive: 22.4 µM [quencher, side channel, partial curve]
Cc1ccccc1NC(=O)CSc1n[nH]c(-c2ccccn2)n1 | inactive: 4.69% | –
CCN1CCN(CC(=O)N2N=C(c3cccs3)CC2c2ccc(C)cc2)C(=O)C1=O (stereo not given) | – | inconclusive: 39.8 µM [quencher, side channel, partial curve, poor fit]
Cc1ccc(-c2nc3cnccn3c2Nc2ccc3c(c2)OCCO3)o1 | – | inconclusive: 14.1 µM [quencher, side channel, partial curve]
Clc1ccc(CO/N=C/c2cccs2)cc1 | – | inconclusive: 39.8 µM [quencher, side channel, partial curve]
CCOC(=O)c1sc2nc3c(SCCC(=O)O)cc(C(=O)c4cc(OC)ccc4O)cn3c(=O)c2c1C | inactive: 3.71% | –
Cc1nn(Cc2ccc(Cl)cc2)c(C)c1NC(=O)c1ccc([N+](=O)[O-])cc1 | – | inconclusive: 11.2 µM [quencher, side channel, partial curve, poor fit]
Cc1ccsc1/C=N/NS(=O)(=O)c1ccc([N+](=O)[O-])cc1 | – | inconclusive: 22.4 µM [quencher, side channel, partial curve]
O=C(CCCn1c(SCc2cc(=O)n3ccccc3n2)nc2ccccc2c1=O)NCC1CCCO1 (stereo not given) | – | inconclusive: 100 µM [quencher, side channel, partial curve]
CCc1ccc(/C=C2\SC(=S)N(CCCC(=O)Nc3ccccc3C(=O)O)C2=O)cc1 | inactive: 0.583% | –
O=C(O)CC(NS(=O)(=O)c1cccc2nsnc12)c1ccc(F)cc1 (stereo not given) | – | inconclusive: 15.8 µM [quencher, side channel, partial curve]
